Measurements reported in a compilation of properties of binary mixtures (doi:10.1524/zpch.2013.0326).
Some of these densities may be calculated back from excess volumes.

Assay: xn = mol fraction of the nth substance listed
Settings: 101 kPa

Cc1ccccc1 + CCCCCCCC[n+]1ccc2ccccc2c1.O=S(=O)([N-]S(=O)(=O)C(F)(F)F)C(F)(F)F
x1 = 1
Settings | mass density [kg/m3]
298.15 K | 862.2
318.15 K | 843.5
328.15 K | 833.9
338.15 K | 824.4
348.15 K | 814.6

c1ccccc1 + CCCCCCCC[n+]1ccc2ccccc2c1.O=S(=O)([N-]S(=O)(=O)C(F)(F)F)C(F)(F)F
x1 = 1
Settings | mass density [kg/m3]
298.15 K | 873.6
318.15 K | 852.1
338.15 K | 830.2
348.15 K | 819.1

c1ccncc1 + CCCCCCCC[n+]1ccc2ccccc2c1.O=S(=O)([N-]S(=O)(=O)C(F)(F)F)C(F)(F)F
x1 = 1
Settings | mass density [kg/m3]
298.15 K | 978
308.15 K | 967.8
318.15 K | 957.7
328.15 K | 947.5
348.15 K | 926.8

c1ccsc1 + CCCCCCCC[n+]1ccc2ccccc2c1.O=S(=O)([N-]S(=O)(=O)C(F)(F)F)C(F)(F)F
x1 = 1
Settings | mass density [kg/m3]
298.15 K | 1058.5
308.15 K | 1046.6
318.15 K | 1034.5
328.15 K | 1022.3
338.15 K | 1009.9

CCCCCCCC[n+]1ccc2ccccc2c1.O=S(=O)([N-]S(=O)(=O)C(F)(F)F)C(F)(F)F + Cc1ccccc1
mass density [kg/m3]
Settings | 298.15 K | 308.15 K | 318.15 K | 328.15 K | 338.15 K | 348.15 K
x2 = 0 | 1331.5 | 1322.8 | 1314.3 | 1306 | – | 1289.2
x2 = 0.0818 | – | – | 1304.1 | 1295.7 | 1287.3 | 1278.9
x2 = 0.1949 | 1304.5 | 1296 | – | 1279 | 1270.6 | 1262.2
x2 = 0.2746 | 1290.6 | – | 1273.6 | 1265.1 | 1256.6 | 1248.2
x2 = 0.3638 | 1273.2 | 1264.6 | 1256 | – | 1239 | 1230.5
x2 = 0.4295 | 1257.6 | – | 1240.3 | – | 1223.2 | 1214.7
x2 = 0.4775 | – | – | 1227.7 | 1219.1 | – | 1202.1
x2 = 0.4902 | – | 1233 | 1224.3 | 1215.7 | 1207.1 | 1198.6
x2 = 0.5467 | 1224.1 | 1215.4 | 1206.7 | – | 1189.4 | 1180.9
x2 = 0.6148 | 1199 | 1190.3 | – | 1172.8 | 1164.1 | 1155.5
x2 = 0.7004 | 1159 | 1150.1 | 1141.3 | – | 1123.7 | 1114.9
x2 = 0.7634 | 1122 | 1113.1 | 1104.2 | 1095.3 | 1086.3 | 1077.4
x2 = 0.8672 | 1038.4 | 1029.3 | – | 1011 | 1001.8 | 992.6

CCCCCCCC[n+]1ccc2ccccc2c1.O=S(=O)([N-]S(=O)(=O)C(F)(F)F)C(F)(F)F + c1ccccc1
mass density [kg/m3]
Settings | 298.15 K | 308.15 K | 318.15 K | 328.15 K | 338.15 K | 348.15 K
x2 = 0 | – | 1322.8 | – | 1306 | 1297.6 | 1289.2
x2 = 0.0912 | 1321.8 | 1313.1 | 1304.7 | 1296.2 | 1287.8 | 1279.4
x2 = 0.1505 | 1314.6 | 1305.9 | 1297.5 | – | 1280.6 | 1272.2
x2 = 0.295 | 1294.8 | 1286.1 | 1277.5 | 1268.9 | 1260.5 | 1252.3
x2 = 0.332 | 1289 | 1280.5 | – | – | 1254.8 | –
x2 = 0.4679 | – | – | 1243.8 | 1235.1 | 1226.5 | 1217.8
x2 = 0.5663 | 1234.9 | 1226 | – | 1208.4 | 1199.6 | 1190.8
x2 = 0.654 | 1202.9 | 1193.9 | 1185 | 1176.1 | 1167.2 | –
x2 = 0.673 | – | 1185.6 | 1176.6 | – | – | 1149.7
x2 = 0.7443 | – | 1148.6 | 1139.4 | 1130.2 | 1121.1 | 1111.9
x2 = 0.8143 | 1111 | 1101.6 | 1092.2 | 1082.8 | – | 1063.8
x2 = 0.8961 | 1034.4 | 1024.5 | 1014.7 | 1004.7 | 994.8 | –

CCCCCCCC[n+]1ccc2ccccc2c1.O=S(=O)([N-]S(=O)(=O)C(F)(F)F)C(F)(F)F + c1ccncc1
mass density [kg/m3]
Settings | 298.15 K | 308.15 K | 318.15 K | 328.15 K | 338.15 K | 348.15 K
x2 = 0 | 1331.5 | 1322.8 | 1314.3 | – | 1297.6 | 1289.2
x2 = 0.0945 | 1324.1 | – | – | 1298.6 | – | –
x2 = 0.1869 | 1315.9 | 1307.3 | – | 1290.4 | 1281.9 | 1273.5
x2 = 0.2762 | 1306.3 | 1297.8 | 1289.2 | 1280.7 | 1272.2 | 1263.7
x2 = 0.3675 | 1294.6 | 1286 | 1277.4 | 1268.8 | 1260.2 | 1251.7
x2 = 0.4584 | 1280.3 | 1271.6 | 1262.9 | 1254.3 | 1245.7 | 1237.1
x2 = 0.5383 | 1264.6 | 1255.8 | – | 1238.4 | – | 1221.1
x2 = 0.637 | 1239.5 | 1230.7 | – | 1213.2 | 1204.5 | 1195.7
x2 = 0.7274 | 1208.2 | 1199.3 | 1190.3 | – | 1172.5 | 1163.7
x2 = 0.8199 | 1162.8 | – | 1144.6 | 1135.5 | – | 1117.3
x2 = 0.9064 | 1098.4 | 1089 | 1079.6 | 1070.1 | 1060.7 | 1051.2

CCCCCCCC[n+]1ccc2ccccc2c1.O=S(=O)([N-]S(=O)(=O)C(F)(F)F)C(F)(F)F + c1ccsc1
mass density [kg/m3]
Settings | 298.15 K | 308.15 K | 318.15 K | 328.15 K | 338.15 K | 348.15 K
x2 = 0 | 1331.5 | 1322.8 | – | 1306 | 1297.6 | 1289.2
x2 = 0.0964 | 1325.7 | – | – | 1300.1 | 1291.6 | 1283.2
x2 = 0.1907 | 1319.5 | 1310.8 | 1302.3 | 1293.7 | 1285.2 | 1276.7
x2 = 0.2739 | 1313.1 | 1304.5 | – | 1287.5 | 1278.9 | 1270.4
x2 = 0.3572 | 1306 | 1297.2 | 1288.5 | 1279.8 | – | 1262.5
x2 = 0.4456 | 1296.8 | 1287.9 | 1279.1 | 1270.3 | 1261.5 | –
x2 = 0.542 | – | – | 1265 | 1256 | 1247.1 | 1238.2
x2 = 0.6385 | 1264.9 | – | 1246.5 | 1237.4 | 1228.2 | 1219.1
x2 = 0.7244 | 1243.1 | 1233.7 | 1224.2 | 1214.8 | 1205.4 | 1196
x2 = 0.821 | – | – | 1187 | 1177.1 | 1167.2 | 1157.3
x2 = 0.8627 | 1185.3 | 1175.1 | 1165 | 1154.8 | 1144.5 | 1134.3
x2 = 0.9065 | 1154.9 | – | – | 1123.1 | 1112.4 | 1101.6
x2 = 0.935 | 1131.3 | 1120.4 | 1109.4 | 1098.4 | 1087.2 | 1075.7
